ChEMBL document CHEMBL1909046, “DrugMatrix in vitro pharmacology data”

Tests used:
[1] = biological target: Voltage-gated inwardly rectifying potassium channel KCNH2 (Homo sapiens, UniProt Q12809); settings: hek293
Cytochrome P450 2E1 = Cytochrome P450 2E1 (Homo sapiens, UniProt P05181); settings: bti-tn-5b1-4
Cytochrome P450 2C19 = Cytochrome P450 2C19 (Homo sapiens, UniProt P33261); settings: bti-tn-5b1-4
Cytochrome P450 2A6 = biological target: T1, Cytochrome P450 2A6 (Homo sapiens, UniProt P11509); settings: bti-tn-5b1-4
T1 sequence (P11509 whole entry): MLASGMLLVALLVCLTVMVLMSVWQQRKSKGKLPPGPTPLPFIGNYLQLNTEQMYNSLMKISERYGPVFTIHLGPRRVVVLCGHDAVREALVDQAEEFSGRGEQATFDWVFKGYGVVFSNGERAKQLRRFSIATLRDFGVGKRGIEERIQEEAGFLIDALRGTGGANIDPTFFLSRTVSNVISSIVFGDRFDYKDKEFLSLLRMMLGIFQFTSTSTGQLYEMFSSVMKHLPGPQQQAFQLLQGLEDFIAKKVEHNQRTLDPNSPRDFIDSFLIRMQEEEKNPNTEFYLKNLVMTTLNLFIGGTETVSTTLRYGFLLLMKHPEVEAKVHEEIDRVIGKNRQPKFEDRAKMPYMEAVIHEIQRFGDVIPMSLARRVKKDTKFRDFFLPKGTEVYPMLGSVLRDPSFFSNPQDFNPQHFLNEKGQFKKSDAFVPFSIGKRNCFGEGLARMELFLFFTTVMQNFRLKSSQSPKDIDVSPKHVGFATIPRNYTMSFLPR

Cytochrome P450 1A2 = biological target: T2, Cytochrome P450 1A2 (Homo sapiens, UniProt P05177); settings: bti-tn-5b1-4
T2 sequence (P05177 whole entry): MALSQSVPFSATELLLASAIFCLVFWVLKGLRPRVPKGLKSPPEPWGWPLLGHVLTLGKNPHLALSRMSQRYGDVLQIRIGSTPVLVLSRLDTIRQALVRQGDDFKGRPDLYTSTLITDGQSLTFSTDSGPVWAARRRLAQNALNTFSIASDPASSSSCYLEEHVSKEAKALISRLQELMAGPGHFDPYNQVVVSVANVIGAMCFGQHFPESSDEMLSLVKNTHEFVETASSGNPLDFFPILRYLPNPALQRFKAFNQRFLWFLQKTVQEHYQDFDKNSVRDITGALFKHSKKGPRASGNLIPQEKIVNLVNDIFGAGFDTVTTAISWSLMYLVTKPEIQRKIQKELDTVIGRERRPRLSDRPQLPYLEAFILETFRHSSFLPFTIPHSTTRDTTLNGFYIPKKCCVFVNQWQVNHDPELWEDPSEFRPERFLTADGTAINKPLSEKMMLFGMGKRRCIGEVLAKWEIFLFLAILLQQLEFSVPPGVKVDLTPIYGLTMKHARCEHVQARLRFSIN
Further: in other assays of this panel Not Active means under 50% inhibition at 10 µM.

Chain of Cytochrome P450 2E1 (P05181 whole entry): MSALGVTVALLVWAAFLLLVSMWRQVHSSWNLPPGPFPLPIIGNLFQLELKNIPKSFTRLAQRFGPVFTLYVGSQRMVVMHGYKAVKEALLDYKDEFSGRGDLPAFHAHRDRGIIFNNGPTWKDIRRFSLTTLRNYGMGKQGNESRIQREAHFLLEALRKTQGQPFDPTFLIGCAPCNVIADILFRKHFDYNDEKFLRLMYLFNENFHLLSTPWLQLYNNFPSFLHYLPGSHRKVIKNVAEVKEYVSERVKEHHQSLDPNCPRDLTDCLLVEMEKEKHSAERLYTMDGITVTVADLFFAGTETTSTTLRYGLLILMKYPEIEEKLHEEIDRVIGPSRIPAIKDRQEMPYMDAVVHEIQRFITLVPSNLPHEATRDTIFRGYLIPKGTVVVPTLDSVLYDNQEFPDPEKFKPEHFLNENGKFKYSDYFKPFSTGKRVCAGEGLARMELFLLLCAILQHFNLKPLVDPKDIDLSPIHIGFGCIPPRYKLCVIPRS
Chain of Cytochrome P450 2C19 (P33261 whole entry): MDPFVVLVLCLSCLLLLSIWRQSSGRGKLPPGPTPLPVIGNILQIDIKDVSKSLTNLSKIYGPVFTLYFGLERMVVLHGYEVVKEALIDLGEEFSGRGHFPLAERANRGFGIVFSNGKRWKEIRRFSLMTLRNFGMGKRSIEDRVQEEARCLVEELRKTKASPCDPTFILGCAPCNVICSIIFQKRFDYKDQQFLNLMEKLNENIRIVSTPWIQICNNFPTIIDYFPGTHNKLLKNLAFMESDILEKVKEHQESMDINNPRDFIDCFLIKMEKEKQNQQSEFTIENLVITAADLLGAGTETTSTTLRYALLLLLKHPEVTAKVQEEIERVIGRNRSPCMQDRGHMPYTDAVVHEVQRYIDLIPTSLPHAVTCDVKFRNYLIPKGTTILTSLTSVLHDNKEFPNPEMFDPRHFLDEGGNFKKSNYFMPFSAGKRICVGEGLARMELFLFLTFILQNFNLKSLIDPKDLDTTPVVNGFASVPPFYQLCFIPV
Chain of Voltage-gated inwardly rectifying potassium channel KCNH2 (Q12809 whole entry): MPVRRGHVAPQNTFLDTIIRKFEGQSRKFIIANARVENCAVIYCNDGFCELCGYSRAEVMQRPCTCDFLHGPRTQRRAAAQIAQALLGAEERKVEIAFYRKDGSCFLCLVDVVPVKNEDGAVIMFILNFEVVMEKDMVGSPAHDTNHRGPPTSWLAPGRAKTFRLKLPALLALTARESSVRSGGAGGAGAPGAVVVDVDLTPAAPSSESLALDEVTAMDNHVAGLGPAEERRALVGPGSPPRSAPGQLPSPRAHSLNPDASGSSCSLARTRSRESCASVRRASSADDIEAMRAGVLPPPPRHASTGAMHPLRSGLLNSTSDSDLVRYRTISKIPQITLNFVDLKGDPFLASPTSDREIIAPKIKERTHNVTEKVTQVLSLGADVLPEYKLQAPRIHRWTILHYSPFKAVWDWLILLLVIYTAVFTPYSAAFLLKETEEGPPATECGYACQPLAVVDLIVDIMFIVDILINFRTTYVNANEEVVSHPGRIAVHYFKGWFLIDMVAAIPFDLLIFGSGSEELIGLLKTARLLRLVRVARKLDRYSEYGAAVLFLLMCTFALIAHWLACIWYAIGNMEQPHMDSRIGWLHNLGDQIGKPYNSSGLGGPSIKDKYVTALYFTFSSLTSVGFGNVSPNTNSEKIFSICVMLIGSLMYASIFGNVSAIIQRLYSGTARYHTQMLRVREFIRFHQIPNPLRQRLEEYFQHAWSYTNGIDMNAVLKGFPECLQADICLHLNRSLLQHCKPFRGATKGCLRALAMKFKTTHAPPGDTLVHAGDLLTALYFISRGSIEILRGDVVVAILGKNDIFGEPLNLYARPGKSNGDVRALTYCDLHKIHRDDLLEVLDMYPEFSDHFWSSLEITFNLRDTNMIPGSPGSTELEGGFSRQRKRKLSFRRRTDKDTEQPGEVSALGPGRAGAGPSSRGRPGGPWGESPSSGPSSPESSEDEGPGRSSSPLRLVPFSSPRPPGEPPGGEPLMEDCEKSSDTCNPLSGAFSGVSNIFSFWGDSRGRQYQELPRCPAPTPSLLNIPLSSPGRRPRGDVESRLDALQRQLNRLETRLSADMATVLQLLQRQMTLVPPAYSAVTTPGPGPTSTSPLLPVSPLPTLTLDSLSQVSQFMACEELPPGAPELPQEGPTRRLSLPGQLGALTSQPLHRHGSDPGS

CCC[C@@H]1C[C@@H](C(=O)N[C@@H]([C@H]2O[C@H](SC)[C@H](O)[C@@H](O)[C@H]2O)[C@H](C)Cl)N(C)C1 [CLINDAMYCIN]
Not Active: IC50 [1] | Ki [1] | IC50 (Cytochrome P450 2E1) | Ki (Cytochrome P450 2E1) | IC50 (Cytochrome P450 2C19) | Ki (Cytochrome P450 2C19) | IC50 (Cytochrome P450 2A6) | Ki (Cytochrome P450 2A6) | IC50 (Cytochrome P450 1A2) | Ki (Cytochrome P450 1A2)
